At least one read-out could not be matched to a standard name with certainty.
Test system: Sox17 expression in human embryonic stem cell line H9
Experiment: Dose titration secondary assay: Sox17 intensity, H9
Type: cell-based
Experimental: It was important to confirm the activity of hits identified from primary screening and further analyze the range of activity by dose titration. New samples of a selective subset of primary screening hits were obtained as dry powders, solubilized to make fresh stock reagents, and diluted into secondary confirmation assays to evaluate effects on human embryonic stem cells.
Culture of two human embryonic stem cells (H1 and H9) was conducted as described in Example 1. Colonies of cells were maintained in an undifferentiated, pluripotent state on Matrigel™ ([…]) coated polystyrene plastic, using a 1:30 dilution of Matrigel™ in DMEM:F12 to coat the surface. Cells were split by enzymatic passage every four days on average. Passage was performed by exposing cell monolayers to a solution of collagenase (1 mg/ml; Sigma-Aldrich) for 10 to 60 minutes at 37° C. followed by gentle scraping with a pipette tip to recover cell clusters. Clusters were allowed to sediment by gravity, then washed to remove residual collagenase. Cell clusters were split at a 1:3 ratio for maintenance culture or a 1:1 ratio for subsequent assay. The human embryonic stem cell lines were maintained at less than passage 50 and routinely evaluated for normal karyotypic phenotype and absence of mycoplasma contamination.
Cell clusters of the H1 or H9 human embryonic stem cell lines used in the assay were evenly resuspended in culture medium and plated onto Matrigel™-coated 96-well Packard VIEWPLATES (PerkinElmer) in volumes of 100 μl/well. MEF conditioned medium supplemented with 8 ng/ml bFGF was used for initial plating and expansion. Daily feeding was conducted by aspirating spent culture medium from each well and replacing with an equal volume of fresh medium. Cultures were allowed to expand one to three days after plating prior to initiating assay. Plates were maintained at 37° C., 5% CO2 in a humidified box for the duration of assay.
A subset of hits resulting from primary screening was used for follow-up study and subsequent secondary assays. Twenty compounds available as dry powders were solubilized as 10 mM stocks in DMSO and stored dessicated at […] until use Immediately prior to assay, compound stocks were diluted 1:1000 to make 10 μM test compound in DMEM:F12 base medium (Invitrogen) supplemented with 0.5% FCS (HyClone) and 100 ng/ml Activin A (R&D Biosystems). This was further diluted two-fold in series to make a seven point dilution curve for each compound, also in DMEM:F12 base medium with 0.5% FCS and 100 ng/ml Activin A.
Assay was initiated by aspirating culture medium from cell monolayers in each well followed by three washes in PBS to remove residual growth factors and serum. Test volumes of 100 μl per well were added back containing medium with 0.5% FCS and different concentrations of inhibitor compounds with 100 ng/ml Activin A, without Wnt3a. Positive control wells contained the same base medium with 0.5% FCS and with 20 ng/ml Wnt3a (R&D Biosystems) in the absence of test compound. Negative control wells contained the same base medium with 0.5% FCS, in the absence of Activin A, Wnt3a, or test compound. Assay wells were aspirated and fed again with identical concentrations of test compound or control solutions on day 2 of assay. On days 3 and 4, all assay wells were aspirated and fed with DMEM:F12 supplemented with 2% FCS and 100 ng/ml Activin A in the absence of both test compound or Wnt3a. Parallel negative control wells were maintained on days 3 and 4 in DMEM:F12 base medium with 2% FCS.
At the end of culture, cells in 96-well plates were washed twice with PBS then fixed with 4% paraformaldehyde at room temperature for 20 minutes, washed three times more with PBS, and then permeabilized with 0.5% Triton X-100 for 20 minutes at room temperature. After fixing and permeabilizing, cells were washed again three times with PBS and then blocked with 4% chicken serum (Invitrogen) in PBS for 30 minutes at room temperature. […]

Compound	Sox17 Intensity (0.156 μM compound)	Sox17 Intensity (0.313 μM compound)	Sox17 Intensity (0.625 μM compound)	Sox17 Intensity (1.25 μM compound)	Sox17 Intensity (2.5 μM compound)	Sox17 Intensity (5 μM compound)	Sox17 Intensity (10 μM compound)
Cc1c[nH]c(-c2cnc(NCCNc3ccc(C#N)cn3)nc2-c2ccc(Cl)cc2Cl)n1 [Compound 221, 6-[(2-{[4-(2,4-Dichlorophenyl)-5-(4-methyl-1H-imidazol-2-yl)pyrimidin-2-yl]amino}ethyl)amino]pyridine-3-carbonitrile]	0.678	0.951	1.160	1.042	0.869	0.432	0.022
O=C1NC(=O)C(c2nn(CCO)c3ccccc23)=C1c1cn(-c2cncnc2)c2ccccc12 [Compound 226, 3-[1-(2-Hydroxyethyl)-1H-indazol-3-yl]-4-(1-pyrimidin-5-yl-1H-indol-3-yl)-1H-pyrrole-2,5-dione]	0.132	0.146	0.196	0.129	0.177	0.174	0.200
O=C1NC(=O)C(c2cn(CCCO)c3ncccc23)=C1c1cnccn1 [Compound 47, 3-[1-(3-Hydroxypropyl)-1H-pyrrolo[2,3-b]pyridin-3-yl]-4-pyrazin-2-yl-1H-pyrrole-2,5-dione]	0.095	0.110	0.154	0.317	0.297	0.353	0.694
CN(C)c1ccc(-n2cc(C3=C(c4nn(CCO)c5ccccc45)C(=O)NC3=O)c3cc(Cl)ccc32)cn1 [Compound 148, 3-{5-Chloro-1-[6-(dimethylamino)pyridin-3-yl]-1H-indol-3-yl}-4-[1-(2-hydroxyethyl)-1H-indazol-3-yl]-1H-pyrrole-2,5-dione]	0.173	0.203	0.220	0.202	0.299	0.300	0.000
O=C1NC(=O)C(c2cn(CCOCCOCCNC3CCCc4ccccc43)c3ccccc23)=C1c1cn(CCNC2CCCc3ccccc32)c2ccccc12 (stereo not drawn) [Compound 144, 3-{1-[2-(1,2,3,4-Tetrahydronaphthalen-1-ylamino)ethyl]-1H-indol-3-yl}-4-(1-{2-[(2-{[2-(1,2,3,4-tetrahydronaphthalen-1-ylamino)ethyl]oxy}ethyl)oxy]ethyl}-1H-indol-3-yl)-1H-pyrrole-2,5-dione]	0.085	0.240	0.165	0.114	0.001	0.001	0.009
O=C1NC(=O)C(c2cn(-c3cccnc3)c3ccccc23)=C1c1cn(CCO)c2ccccc12 [Compound 206, 3-[1-(2-Hydroxyethyl)-1H-indol-3-yl]-4-(1-pyridin-3-yl-1H-indol-3-yl)-1H-pyrrole-2,5-dione]	0.132	0.311	0.453	1.012	0.986	0.480	0.002
O=C1NC(=O)C2=C1Nc1cccc(c1)OCCC/C=C\CCCOc1cccc2c1 [Compound 233, (11Z)-8,9,10,13,14,15-Hexahydro-2,6:17,21-di(metheno)pyrrolo[3,4-h][1,15,7]dioxazacyclotricosine-22,24(1H,23H)-dione]	0.039	0.070	0.137	0.075	0.053	0.038	0.000
OCCC#Cc1nc(-c2ccc(F)cc2)c(-c2ccncc2)n1CCCc1ccccc1 [Compound 158, 4-[4-(4-Fluorophenyl)-1-(3-phenylpropyl)-5-pyridin-4-yl-1H-imidazol-2-yl]but-3-yn-1-ol]	0.059	0.054	0.073	0.053	0.042	0.016	0.004
COC(=O)c1cncc(-n2cc(C3=C(c4nn(CCO)c5ccccc45)C(=O)NC3=O)c3cc(Cl)ccc32)c1 [Compound 150, Methyl 5-(5-chloro-3-{4-[1-(2-hydroxyethyl)-1H-indazol-3-yl]-2,5-dioxo-2,5-dihydro-1H-pyrrol-3-yl}-1H-indol-1-yl)pyridine-3-carboxylate]	0.146	0.282	0.202	0.165	0.205	0.234	0.042
CN(CCO)CCCn1nc(C2=C(c3cn(-c4cccnc4)c4ccccc34)C(=O)NC2=O)c2ccccc21 [Compound 198, 3-(1-{3-[(2-Hydroxyethyl)(methyl)amino]propyl}-1H-indazol-3-yl)-4-(1-pyridin-3-yl-1H-indol-3-yl)-1H-pyrrole-2,5-dione]	0.051	0.052	0.103	0.312	0.100	0.105	0.121
CC(C)(O)CCn1nc(C2=C(c3cn(-c4cccnc4)c4ccccc34)C(=O)NC2=O)c2ccccc21 [Compound 223, 3-[1-(3-Hydroxy-3-methylbutyl)-1H-indazol-3-yl]-4-(1-pyridin-3-yl-1H-indol-3-yl)-1H-pyrrole-2,5-dione]	0.116	0.155	0.277	0.459	0.726	1.114	0.140
CN(C)c1cccc(-n2cc(C3=C(c4nn(CCO)c5ccccc45)C(=O)NC3=O)c3ccccc32)c1 [Compound 145, 3-{1-[3-(Dimethylamino)phenyl]-1H-indol-3-yl}-4-[1-(2-hydroxyethyl)-1H-indazol-3-yl]-1H-pyrrole-2,5-dione]	0.049	0.068	0.222	0.076	0.120	0.087	0.000
